This is one part of the list. Sequences were assembled here from the parent chain. Inactive controls read about 0.05.
B1: TEV protease; numbered along this chain (parent)
chain: MGESLFKGPRDYNPISSSICHLTNESDGHTTSLYGIGFGPFIITNKHLFRRNNGTLVVQSLHGVFKVKDTTTLQQHLVDGRDMIIIRMPKDFPPFPQKLKFREPQREERICLVTTNFQTKSMSSMVSDTSCTFPSGDGIFWKHWIQTKDGQCGSPLVSTRDGFIVGIHSASNFTNTNNYFTSVPKNFMELLTNQEAQQWVSGWRLNADSVLWGGHKVFMVKPEEPFQPVKEATQL

Variants of: B1
Test: raw area under fraction-flipped curve 0-4 h after induction (AUC4h, not background-subtracted), DNA-recorder readout of cleavage of the substrate (dimensionless); higher = more cleavage of the substrate by the protease variant
Details: temperature: 34 °C; time window: 0-4 h after rhamnose induction
Method: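 In vivo DNA recorder in E. coli TOP10(DE3) ΔrhaA at 34 °C. Each TEVp single-site mutant (parent TEVp 0) is paired with a single-site variant of the 7-mer TEVs (canonical ENLYFQ|S). The substrate sits between flexible linkers in a Bxb1-sfGFP-TEVs-SsrA fusion, so cleavage stabilises Bxb1 and speeds flipping of a recombination array, read by NGS. The value is the raw area under the fraction-flipped curve over 0-4 h after rhamnose induction (AUC4h), with ≥20 reads per time point. It is not background-subtracted; inactive controls average about 0.047.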
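Note: Bxb1 expression induced with 0.2% (w/v) L-rhamnose at OD600 near 0.5, cultures sampled hourly, flipped fraction per protease–substrate barcode pair counted by paired-end Illumina sequencing.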

Variant | area with substrate ENLYFAS | area with substrate ENLYFCS | area with substrate ENLYFDS | area with substrate ENLYFES | area with substrate ENLYFFS | area with substrate ENLYFGS | area with substrate ENLYFHS | area with substrate ENLYFIS | area with substrate ENLYFKS | area with substrate ENLYFLS | area with substrate ENLYFMS | area with substrate ENLYFNS | area with substrate ENLYFPS | area with substrate ENLYFRS | area with substrate ENLYFSS | area with substrate ENLYFTS | area with substrate ENLYFWS | area with substrate ENLYFYS | area with substrate ENLYFVS
MGESLFKGPRDYNPISSSICHLTNESDGHTTSLYGIGFGPFIITYKHLFRRNNGTLVVQSLHGVFKVKDTTTLQQHLVDGRDMIIIRMPKDFPPFPQKLKFREPQREERICLVTTNFQTKSMSSMVSDTSCTFPSGDGIFWKHWIQTKDGQCGSPLVSTRDGFIVGIHSASNFTNTNNYFTSVPKNFMELLTNQEAQQWVSGWRLNADSVLWGGHKVFMVKPEEPFQPVKEATQL [N45Y] | 0.0464 | 0.059 | 0.0694 | 0.0657 | 0.0586 | 0.0619 | 0.0588 | 0.0581 | 0.0525 | 0.0568 | 0.0583 | 0.0506 | 0.0637 | 0.0601 | 0.0657 | 0.0767 | 0.0605 | 0.0607 | 
MGESLFKGPRDYNPISSSICHLTNESDGHTTSLYGIGFGPFIITNKHLFRRNNGTLVVQSLHGVFKVKDTTTLQQHLVDGRDMIIIRMPKDFPPFPQWLKFREPQREERICLVTTNFQTKSMSSMVSDTSCTFPSGDGIFWKHWIQTKDGQCGSPLVSTRDGFIVGIHSASNFTNTNNYFTSVPKNFMELLTNQEAQQWVSGWRLNADSVLWGGHKVFMVKPEEPFQPVKEATQL [K98W] | 0.0551 |  |  | 0.0691 |  | 0.0538 |  | 0.0994 | 0.0615 |  | 0.0641 | 0.0708 | 0.0577 | 0.0593 | 0.0642 | 0.0547 | 0.0503 | 0.0603 | 0.0501
MGESLFKGPRDYNPISSSICHLTNESDGHTTSLYGIGFGPFIITNKHTFRRNNGTLVVQSLHGVFKVKDTTTLQQHLVDGRDMIIIRMPKDFPPFPQKLKFREPQREERICLVTTNFQTKSMSSMVSDTSCTFPSGDGIFWKHWIQTKDGQCGSPLVSTRDGFIVGIHSASNFTNTNNYFTSVPKNFMELLTNQEAQQWVSGWRLNADSVLWGGHKVFMVKPEEPFQPVKEATQL [L48T] | 0.0613 | 0.068 |  | 0.0548 | 0.0735 | 0.0578 | 0.0582 | 0.0575 | 0.0814 |  | 0.0619 |  | 0.0617 | 0.0585 |  | 0.0594 | 0.0523 | 0.0529 | 0.0418
MGESLFKGPRDYNPISSSICHLTNESDGHTTSLYGIGFGPFIITNKHLFRRNNGTLVVQSLHGVFKVKDTTTLQQHLVDGRDMIIIRMPKDFPPFPQKLKFREPQREERICLVTTNFQTKSMSSMVSDTSCDFPSGDGIFWKHWIQTKDGQCGSPLVSTRDGFIVGIHSASNFTNTNNYFTSVPKNFMELLTNQEAQQWVSGWRLNADSVLWGGHKVFMVKPEEPFQPVKEATQL [T132D] | 0.0445 | 0.0469 | 0.0496 | 0.0499 | 0.0576 |  | 0.0586 | 0.0435 |  | 0.045 | 0.0539 | 0.0534 | 0.0523 | 0.0612 | 0.0598 | 0.0433 | 0.0466 | 0.0503 | 0.0491
MGESLFKGPRDYNPISSSICHLTNESDGHTTSLYGIGFGPFIITNKHLFRRNNGTLVVQSLHGVFKVKDTTTLQQHLVDGRDMIIIRMPKDFPPFPQKLKFREPQREERICLVTTNFQTKSMWSMVSDTSCTFPSGDGIFWKHWIQTKDGQCGSPLVSTRDGFIVGIHSASNFTNTNNYFTSVPKNFMELLTNQEAQQWVSGWRLNADSVLWGGHKVFMVKPEEPFQPVKEATQL [S123W] | 0.055 | 0.0597 | 0.0661 | 0.0597 | 0.0559 | 0.068 | 0.0644 | 0.0616 | 0.059 |  | 0.0537 | 0.0649 | 0.0523 | 0.0573 |  | 0.0532 | 0.0579 | 0.0587 | 0.0631
MGESLFKGPRDYNPISSSICHLTNESDGHTTSLYGIGFGPFIITNKHLFRRNNGTRVVQSLHGVFKVKDTTTLQQHLVDGRDMIIIRMPKDFPPFPQKLKFREPQREERICLVTTNFQTKSMSSMVSDTSCTFPSGDGIFWKHWIQTKDGQCGSPLVSTRDGFIVGIHSASNFTNTNNYFTSVPKNFMELLTNQEAQQWVSGWRLNADSVLWGGHKVFMVKPEEPFQPVKEATQL [L56R] | 0.0485 | 0.0328 | 0.0446 | 0.04 | 0.0264 | 0.0553 |  | 0.0399 | 0.0458 |  | 0.0378 | 0.0477 | 0.0539 | 0.0527 |  |  |  | 0.2 | 0.0539
MGESLFKGPRDYNPISSSICHLTNESDGHTTSLYGIGFGPFIITNKHLFRRNNGTLVVQSLHGVFKVKDTTTLQQHLVDGRDMIIIRMPKDFPPFPQKLKFREPQREERICLVTTCFQTKSMSSMVSDTSCTFPSGDGIFWKHWIQTKDGQCGSPLVSTRDGFIVGIHSASNFTNTNNYFTSVPKNFMELLTNQEAQQWVSGWRLNADSVLWGGHKVFMVKPEEPFQPVKEATQL [N116C] | 0.0612 |  | 0.0618 | 0.0571 |  |  | 0.0351 | 0.0642 |  |  |  | 0.0529 | 0.0444 |  | 0.0675 | 0.0609 |  | 0.053 | 
MGESLFKGPRDYNPISSSICHLTNESDGHTTSLYGIGFGPFIITNKHLFRRNNGTLVVQSLHGVFKVKDTTTLQQHLVDGRDMIIIRMPKDFPPFPQKLKFREPQREERICLVTTNFQTKSMSSMVSDTSCTFPSGDGIFWKHWIQTKDGQCGSPLVSTRDGFIVCIHSASNFTNTNNYFTSVPKNFMELLTNQEAQQWVSGWRLNADSVLWGGHKVFMVKPEEPFQPVKEATQL [G166C] | 0.047 | 0.0584 |  | 0.0522 | 0.0648 | 0.0605 |  | 0.0534 | 0.0283 | 0.0607 | 0.062 | 0.0509 | 0.0537 | 0.0577 | 0.0477 | 0.053 | 0.0479 | 0.0497 | 
